About 14,000 (4.5%) of roughly 310,000 compounds showed an effect of 50% or more. Effects have a minus sign here. Some of the results follow.
Target: human ether-à-go-go-related gene (hERG) potassium channel (human, UniProt Q12809)
Assay: primary screen, population patch clamp on CHO cells stably expressing hERG
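Further: peak tail current of the secondary pulse compared with the same well before compound.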

human ether-à-go-go-related gene (hERG) potassium channel, sequence (Q12809 whole entry, looked up): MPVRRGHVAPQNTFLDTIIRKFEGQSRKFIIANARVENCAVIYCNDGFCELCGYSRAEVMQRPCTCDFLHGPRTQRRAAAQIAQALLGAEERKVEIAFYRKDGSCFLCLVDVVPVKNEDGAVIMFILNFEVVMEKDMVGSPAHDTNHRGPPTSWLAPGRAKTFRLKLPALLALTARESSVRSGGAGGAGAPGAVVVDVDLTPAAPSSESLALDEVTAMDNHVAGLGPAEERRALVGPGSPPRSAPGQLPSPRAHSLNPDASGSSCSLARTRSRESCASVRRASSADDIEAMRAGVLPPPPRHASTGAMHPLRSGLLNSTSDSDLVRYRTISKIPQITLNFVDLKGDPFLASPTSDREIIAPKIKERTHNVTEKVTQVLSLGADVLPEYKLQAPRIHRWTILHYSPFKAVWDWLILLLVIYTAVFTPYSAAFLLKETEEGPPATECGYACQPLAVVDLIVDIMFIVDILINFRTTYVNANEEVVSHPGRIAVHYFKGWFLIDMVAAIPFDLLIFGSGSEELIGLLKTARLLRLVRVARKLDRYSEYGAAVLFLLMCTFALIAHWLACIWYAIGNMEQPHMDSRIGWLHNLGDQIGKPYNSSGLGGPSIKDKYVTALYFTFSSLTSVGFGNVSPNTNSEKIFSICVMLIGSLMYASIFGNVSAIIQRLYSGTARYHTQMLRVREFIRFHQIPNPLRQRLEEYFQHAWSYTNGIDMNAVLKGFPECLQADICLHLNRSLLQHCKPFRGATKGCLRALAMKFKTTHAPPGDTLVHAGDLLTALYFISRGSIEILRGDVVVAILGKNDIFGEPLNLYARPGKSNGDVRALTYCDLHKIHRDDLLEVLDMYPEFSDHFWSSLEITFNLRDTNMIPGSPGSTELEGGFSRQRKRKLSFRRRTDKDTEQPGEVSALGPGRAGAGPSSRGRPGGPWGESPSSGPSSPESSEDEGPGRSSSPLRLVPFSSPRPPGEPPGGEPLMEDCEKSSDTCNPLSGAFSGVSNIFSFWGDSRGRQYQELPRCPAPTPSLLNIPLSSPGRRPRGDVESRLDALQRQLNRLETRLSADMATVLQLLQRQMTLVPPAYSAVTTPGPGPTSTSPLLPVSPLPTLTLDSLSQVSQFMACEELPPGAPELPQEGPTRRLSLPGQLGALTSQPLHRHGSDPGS

SMILES | hERG current change (%, negative = inhibition) at 10uM [%]
CSc1nsc(/C=C/Nc2ccc(Cl)cc2)c1C#N | 8.59
O=C(CCC(=O)OC(C(=O)c1ccccc1)c1ccccc1)Nc1ccccc1 (stereo not shown) | 3.27
Cc1ccc(/C=C2/NC(=O)N(Cc3ccccc3)C2=O)s1 | -16.6
Cc1ccc2nc3c(c(Nc4ccccc4)c2c1)CCC3.Cl | -71.7
Cc1cccc(NC(=O)c2ccc3[nH]c(=O)c(=O)[nH]c3c2)n1 | -4.79
N#Cc1c(NC(=O)CSC2=NCCS2)sc2c1CCCC2 | -6.3
Cc1ccc(N(CC(=O)NCc2ccc3c(c2)OCO3)S(=O)(=O)c2c(C)noc2C)cc1 | 2.53
O=Nc1c(O)n(Cc2ccc(Cl)cc2Cl)c2ccccc12 | 4.26
Cc1cc(Cl)nc(Cl)c1C(=O)NCCc1ccccc1 | 1.69
COc1ccc(C(=O)NCc2nnc(SCC(=O)Nc3nnc(C)s3)o2)cc1 | 14.5
Cc1occc1C(=O)N1CCCC(Nc2ccc(F)cc2)C1 (stereo not shown) | -3.68
CNC(=S)NCCN1CCOCC1 | -9.17
CCCc1nc2ccccc2c(C(=O)OCC(=O)NCc2ccco2)c1CC | -27.6
O=C1NC(=O)C(=Cc2cccc(OCCOc3ccccc3)c2)C(=O)N1 | -1.14
COC(=O)c1ccc(NC(=O)CN(Cc2ccc(Cl)cc2)S(C)(=O)=O)cc1 | -1.02
O=C(CCC(=O)N1CCCC1)N1CCCC1 | 36.1
Cc1cc(C)c(C)c(SCC(=O)Nc2oc(C)c3c(C)n[nH]c(=O)c23)c1C | -32.8
Cc1ccc(C(=O)N2CCN(c3nc4ccccc4n3C)CC2)cc1 | -70.3
COc1ccc(CC(=O)Nc2cc(Cl)ccc2C(=O)O)cc1 | 12.1
COc1ccc(N(C(=O)C2CSC(=O)C2)C(C(=O)NC(C)(C)C)c2ccncc2)cc1 (stereo not shown) | 23.8
COc1ccccc1N1CCN(c2nc(C)cc(=O)[nH]2)CC1 | 11.6
CN(CCCNC(=O)C1CCCN(S(=O)(=O)c2cnc[nH]2)C1)c1ccccc1 (stereo not shown) | 16.3

SMILES | hERG current change (%, negative = inhibition) at 10uM [%]
COc1ccc(-n2c(O)c(/C(C)=N/Nc3ccccc3)c(=O)[nH]c2=O)cc1 | 8.31
O=[N+]([O-])c1cc([N+](=O)[O-])c2nonc2c1Nc1ccccc1O | 10.3
Cc1csc(NC(=O)/C=C/c2ccco2)n1 | 3.38
Cc1ccccc1S(=O)(=O)Cc1ccc(C(=O)NC(C)c2ccc3c(c2)OCCO3)o1 (stereo not shown) | -7.77
COc1nc(C)cc(C)c1S(=O)(=O)c1ccc(Cl)cc1 | -6.97
CC(NC(=O)C(=O)N/N=C\c1cccc([N+](=O)[O-])c1)c1ccccc1 (stereo not shown) | 11.2
Cc1ccc(-c2nn(CC(=O)Nc3ccc4c(c3)nc3n4CCOC3)c(=O)c3ccccc23)cc1 | -17.4
CN1C(=O)C(C)(C)c2cc(S(=O)(=O)N3CCCC3C(=O)NCc3ccccc3Cl)ccc21 (stereo not shown) | -4.71
Cc1sc2nc(SCC(=O)N3CCN(CCO)CC3)n(-c3ccccc3)c(=O)c2c1C | -3.7
O=C(OCCN1C(=O)c2ccccc2C1=O)C1CCN(S(=O)(=O)c2cccs2)CC1 | -31.9
CC(C)c1ccc(NC(=S)NC2CC3C=CC2C3)cc1 (stereo not shown) | -29.8
CCC(C)(C)c1nnc(NC(=O)CCC2CCCCC2)s1 | 5.3
Cc1ccc(NC(=O)N2CCc3ccccc32)cc1C | 8.5
O=c1[nH][nH]c(=O)c2cc(N3CCCC3)ccc12 | 4.02
Nc1c(S(=O)(=O)c2cccc(Cl)c2)c2nc3ccccc3nc2n1CCN1CCOCC1 | -5.28
COc1cccc(CN2CC(C(=O)NCCSc3nnnn3C)CCC2=O)c1 (stereo not shown) | 18
COc1cccc(/C=N/n2c(COc3ccccc3)n[nH]c2=S)c1O | 5.67
CC(C)c1cc(C(=O)O)n(-c2ccccc2)n1 | 12.1
O=C(COC(=O)CCCOc1ccc(Cl)cc1Cl)Nc1cccc(Cl)c1 | 3.62
N#Cc1cn(CCCOc2ccccc2)c2ccccc12 | -3.6
COC(=O)c1ccc(Nc2cc(C)nc3nc(C)nn23)cc1 | -37.8

— publication PMC4336329 (PLoS ONE, 2015)
